Laboratory results taken from publication PMC9574860, “Chemical Toolkit for PARK7: Potent, Selective, and High-Throughput” (Journal of Medicinal Chemistry, 2022).
Screen size: about 7,900 compounds; about 400 (5.1%) showed an effect of 50% or more. The list shows a part of the results.

Target: Parkinson's disease protein 7 (PARK7/DJ1) (human, UniProt Q99497)
Test: primary screen, percent inhibition; read as competition with a fluorescent probe by fluorescence polarization; higher = more effect of the substance
Settings: 100 µM
In short: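 Fluorescence-polarization probe displacement (JYQ-107, 20 nM final, 2 h) after 2 h preincubation of PARK7 (0.2 μM final) with each fragment at 100 μM final. Read-out ex/em 480/520 nm; remaining activity derived from FP signal loss relative to reference controls.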

Sequence of Parkinson's disease protein 7 (PARK7/DJ1) (Q99497 whole entry, looked up): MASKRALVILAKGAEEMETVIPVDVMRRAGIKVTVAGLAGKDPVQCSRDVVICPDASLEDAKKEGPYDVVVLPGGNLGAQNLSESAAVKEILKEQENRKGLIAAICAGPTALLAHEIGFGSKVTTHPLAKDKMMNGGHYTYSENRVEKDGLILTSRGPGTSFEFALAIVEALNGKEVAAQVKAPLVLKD

| Structure (SMILES) | Inhibition % [%] |
| --- | --- |
| C=CC(=O)Nc1ccccc1C(=O)N1CCOCC1 | 4.68 |
| C=CC(=O)NCC1CCC2(CCCC2)O1 (stereo not drawn) | 4.84 |
| CC1(C)OB(c2ccc3c(c2)NC(=O)C3)OC1(C)C | 27.3 |
| CC(=O)Nc1nn(C)cc1S(=O)(=O)F | 14.8 |
| Cn1cccc1C(=O)Cn1cnc(C#N)n1 | 8.8 |
| CN1CCN(S(=O)(=O)c2ccc(S)nc2)CC1 | 18.5 |
| N#CN(CCO)c1ccc(F)cc1 | 6.47 |
| CC1(C)OB(C2C3CCN(CC3)S2(=O)=O)OC1(C)C (stereo not drawn) | 4.59 |
| COc1ccc(S(=O)(=O)n2ccnc2)cc1C | 8.09 |
| O=C1CCC(=O)N1Cc1cc(F)cc2cccnc12 | 11 |
| Cc1ccccc1NC(=O)CN1CCSC1=O | 9.93 |
| O=S(=O)(F)CCN1CCn2c(Cc3ccccc3)nnc2C1 | 10.2 |
| CC1(C)Cc2cccc(Oc3cnc(C#N)cn3)c2O1 | -1.06 |
| C=CC(=O)N1C[C@@H](OC)C[C@@H]1c1nc(C)no1 | 8.99 |
| NC(=O)N1CCc2cc(S(=O)(=O)F)ccc21 | 10.9 |
| CN1CCN(C(=O)CCl)CC1.Cl | 1.98 |
| O=C(CCl)N1CCCC1c1ccc2c(c1)OCCCO2 (stereo not drawn) | 4.11 |
| C=CC(=O)Nc1ccc2nc(N3CCOCC3)sc2c1 | 4.46 |
| CC1CN(C)CCN1C(=O)C=Cc1cnn(C)c1 (stereo not drawn) | 7.53 |
| N#CC(=Cc1ccccc1)C(=O)N1CCCC1 | 7.15 |

| Structure (SMILES) | Inhibition % [%] |
| --- | --- |
| NC(=O)CN(C1CCCC1)S(=O)(=O)C=Cc1ccccc1 | 7.09 |
| N#CCSc1ccccc1NC(=O)CCl | 0.0244 |
| CC(C)(C)OC(=O)NC1CC=C(B2OC(C)(C)C(C)(C)O2)CC1 (stereo not drawn) | 3.3 |
| O=C1NC2(CCCC2)C(=O)N1CCS(=O)(=O)F | 19.5 |
| C=CC(=O)N1CCC(C)C(C)(C)C1 (stereo not drawn) | 6.89 |
| C=CC(=O)Nc1cccc(Cn2cccnc2=O)c1 | 8 |
| CN(Cc1nc2ccccc2c(=O)[nH]1)C1CCOC1=O (stereo not drawn) | 19 |
| CNC1CCCN(C(=O)C=Cc2csc(C)n2)C1 (stereo not drawn) | 10.5 |
| C=CC(=O)N1CCC(CCC(N)=O)CC1 | 0.755 |
| N#Cc1cnn(-c2ccccc2)n1 | 3.14 |
| Cc1nn(S(=O)(=O)c2ccccc2)c(C)c1C | 6.77 |
| COc1ccc(NC(=O)CCl)cc1 | 55.2 |
| COc1cc(C)c(C)cc1S(=O)(=O)n1cccn1 | 6.67 |
| O=C(C=Cc1cccnc1)N1CCc2ccccc2C1 | 2.87 |
| CC1CC(N2CCC(O)CC2)C(=O)O1 (stereo not drawn) | 5.67 |
| OB(O)C1CCN(Cc2cn(C3CCC3)nn2)C1 (stereo not drawn) | 16 |
| FC(F)(F)c1cc(S)ncn1 | 23.7 |
| CC(NC(=O)CCl)c1ccc2ccccc2c1 (stereo not drawn) | 10 |
| N#Cc1ncn(CC(=O)N(C2=CCCCC2)C2CC2)n1 | 29.4 |
| C=CC(=O)NC1CCCN(Cc2ccccn2)C1=O (stereo not drawn) | 8.53 |

| Structure (SMILES) | Inhibition % [%] |
| --- | --- |
| N#CC(=Cc1ccc(OC(F)F)c(Cl)c1)C(N)=O | 8.67 |
| CCCc1nnc(NS(=O)(=O)c2ccc(S(=O)(=O)F)cc2)o1 | 49.9 |
| C=C(C)CC(C)C(=O)NCc1cc(=O)[nH]c(S)n1 (stereo not drawn) | 8.98 |
| O=C(CCl)NCc1ccc(N2CCCC2=O)cc1 | 7.36 |
| CC1(C)OB(c2ccc(F)cc2F)OC1(C)C | 0.286 |
| COC(=O)c1cc(B2OC(C)(C)C(C)(C)O2)ccc1NC(=O)OC(C)(C)C | 12.2 |
| COc1c(C2CCCN2C2CCOC2=O)c(C)nn1C (stereo not drawn) | 2.74 |
| Cc1nc(C(C)(C)C)nc(S)c1C(=O)O | 1.97 |
| C=CC(=O)NCC1CC2CCC(C1)S2 (stereo not drawn) | 2.67 |
| O=C(CCl)Nc1ccccc1C(=O)NCc1ccco1 | 7.43 |
| CC(C#N)NS(=O)(=O)c1ccc(S(=O)(=O)F)cc1 (stereo not drawn) | 23.5 |
| O=C(c1cccc(F)c1Cl)N1CCC(C2OCCO2)CC1 | 6.27 |
| N#Cc1nc(NCc2ccncc2)ccc1Cl | -1.99 |
| O=C(CCl)Nc1cccc(C(F)(F)F)c1 | 23.1 |
| C=CC(=O)Nc1cccc2c1CN(CC(C)C)C2 | 8.44 |
| C=CC(=O)NCc1nnc2ccc(C(F)(F)F)cn12 | 2.93 |
| Cc1ccc(C=C(C#N)C(=O)Nc2nccs2)o1 | 4.95 |
| Cc1cc(B2OC(C)(C)C(C)(C)O2)c(C)cn1 | -1.01 |
| COc1ccc(CS(=O)(=O)F)cc1[N+](=O)[O-] | 18.4 |
| CS(=O)(=O)OC1CCCCC1 | 11.8 |
